# Hit rate of the full screen: of about 360,000 compounds, about 6,000 (1.7%) were called active. Inconclusive results, whose numbers are uncertain, are shown with a selection of clear calls. Calls follow the shape of the dose curve; as a rule, active = well fitted cell-killing curve with a large enough effect; inconclusive = small, poorly fitted or top-dose-only effect, or effect the other way; inactive = flat fitted curve, though single readings scatter. No potency is given beside an inconclusive call; the fits are too rough.
# Test: qHTS for induction of synthetic lethality in tumor cells producing 2HG: qHTS for the HT-1080-NT fibrosarcoma cell line;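 also: NT is the 2HG producing partner of a matched IDH1 knockdown line; nearly all actives have a fitted effect of over 55% in size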;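 as to activity, negative = less viability: 0% = DMSO-treated cells and -100% = media-only wells without cells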
# Conditions: HT-1080-NT fibrosarcoma viability, CellTiter-Glo ATP luminescence, 48 h; activity, negative = less viability: at 46.1 µM (top of the series) unless noted
# In short: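 Toxicity toward the 2HG-producing NT line was scored as %Activity, normalised to DMSO and no-cell wells, from CellTiter-Glo luminescence after 48 hours' treatment.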
# Potency is read from the fitted curve at half-maximal effect; tags tell the direction and shape of the fitted curve.
Compound,Potency,"activity, negative = less viability"
CCN(C(=S)Nc1cccc(C)c1)c1ccccc1,"inconclusive [rising, single point]",–
COc1ccc(/C=C(\NC(=O)c2ccco2)C(=O)NCc2ccco2)cc1,"inconclusive [rising, full curve, poor fit]",–
COc1ccccc1NC(=O)c1ccc(C)c(S(=O)(=O)N2CCCCC2)c1,–,inactive: -7.82%
CCc1nc2ccc(C(=O)N3CCN(c4ccc([N+](=O)[O-])cc4)CC3)cc2nc1CC,"inconclusive [cytotoxic, single point]",–
CN1CCN(Cc2nc3ccccc3c(=O)n2Cc2nc(-c3ccc([N+](=O)[O-])cc3)cs2)CC1,active: 20.6 µM,–
COc1ccc(CC2(CO)CCN(Cc3cnn(-c4ccccc4)c3)CC2)cc1,"inconclusive [cytotoxic, partial curve]",–
COC(=O)CCc1sc(Nc2ccc(Br)cc2)nc1-c1ccc(OC)cc1,"inconclusive [cytotoxic, single point]",–
Cc1ccc(O)c(N=Cc2sc3ccccc3c2Cl)c1,"inconclusive [cytotoxic, single point]",–
CCN(CC)CCCNc1nc2ccccc2c2[nH]c3ccc(OC)cc3c12,"inconclusive [cytotoxic, single point]",–
CCOC(=O)Cc1csc(NC(=O)/C=C/c2ccccc2Cl)n1,"inconclusive [cytotoxic, single point]",–
O=C(NCc1ccccc1)NC(=O)c1ccncc1,–,inactive: 1.97% [at 9.24 µM]
CN(C)CCCN(C(=O)CCOc1ccccc1)c1nc2ccc(F)cc2s1,active: 18.4 µM,–
C=CCn1c(SCC(=O)Nc2sccc2C(N)=O)nc2ccc(Cl)cc2c1=O,"inconclusive [cytotoxic, partial curve]",–
COC(=O)c1ccc2c(c1)C(C)(C)C(/C=C/c1ccc(OC)c(OC)c1OC)=[N+]2C,active: 11.6 µM,–
CCCn1ncc(CN2CCC(C(=O)Nc3cccc(-c4cccc(F)c4)c3)CC2)c1C,active: 20.6 µM,–
O=C(NCC(=O)N1CC=C(c2ccccc2)CC1)c1ccc(OC(F)F)cc1,"inconclusive [cytotoxic, single point]",–
Cc1cccc(N2C(=O)C(Oc3ccc(Cl)cc3Cl)C2C=O)c1C (centres undefined),active: 9.2 µM,–
CCc1c(C)nc(SC/C=C/c2ccccc2)[nH]c1=O,"inconclusive [cytotoxic, single point]",–
Cn1c(NCCN2CCCC2)nc2cc(-c3ccsc3)sc2c1=O,"inconclusive [cytotoxic, single point]",–
COc1ccccc1NC(=O)C1CCN(S(=O)(=O)c2cccc3nonc23)CC1,–,inactive: 9.04%
Cc1cc(C(=O)Nc2ccc(S(=O)(=O)N3CCCC3)cc2)cs1,"inconclusive [cytotoxic, single point]",–
O=C(O)c1ccc(/C=C/C(=O)c2ccc3c(c2)OCCCO3)cc1,"inconclusive [cytotoxic, single point]",–
CS(=O)(=O)N1CCN(c2ccc([N+](=O)[O-])c(NCc3ccc(Cl)cc3)c2)CC1,"inconclusive [cytotoxic, single point]",–

Compound,Potency,"activity, negative = less viability"
CN1CCN(c2ccc(Cl)cc2NC(=O)/C=C/c2ccc(F)cc2)CC1,active: 23.1 µM,–
Cc1ccc(C)c(Cn2nnc3c(=O)[nH]c(C4CCN(S(=O)(=O)c5ccc(S(=O)(=O)NC6CC6)cc5)CC4)nc32)c1,"inconclusive [cytotoxic, single point]",–
Cc1ccc(-c2nc3ccccc3[nH]2)s1,"inconclusive [cytotoxic, partial curve]",–
CCOCc1nc(N)nc(N)c1-c1cccc(Cl)c1,"inconclusive [cytotoxic, single point]",–
COC(=O)c1c(NC(=O)CSc2nc(-c3ccco3)cc(C(F)(F)F)n2)sc2c1CCCC2,–,inactive: 4.66%
Cc1ccccc1N(C(=O)c1snc(C(N)=O)c1N)C(C(=O)NC1CCCCC1)c1ccc(O)cc1 (centres undefined),–,inconclusive: -26.1% [cytotoxic]
COc1cccc2c(=O)cc(C)n(CC(=O)Nc3ccc(C)c(C)c3)c12,"inconclusive [cytotoxic, partial curve]",–
Cc1nn(-c2ccccc2)c2[nH]c(C(F)(F)F)cc(=O)c12,"inconclusive [cytotoxic, single point]",–
CCOc1ccc(C(CC(=O)O)NC(=O)Cc2ccccc2)cc1OC (centres undefined),–,inactive: 3.33%
C=CCNC(=O)NC(=S)c1ccccc1,"inconclusive [cytotoxic, single point]",–
O=C1[C@H]2[C@@H](c3ccc(C(F)(F)F)cc3)N[C@]3(CCCN(CC4CCCCC4)C3=O)[C@H]2C(=O)N1Cc1ccccc1,"inconclusive [cytotoxic, single point]",–
Brc1ccc(NC2=Nc3ccccc3CC2)cc1,–,inactive: 0.738%
NC(Cc1ccc(Cl)cc1)c1csc(Nc2ccc(-c3ccccc3)nn2)n1 (centres undefined),"inconclusive [cytotoxic, single point]",–
O=[N+]([O-])c1ccc(O)c(C2=NNC(c3ccccc3F)C2)c1 (centres undefined),active: 20.6 µM,–
O=C(C1=C[C@@H](c2ccc(Br)cc2)C[C@@H](OCc2ccc(CO)cc2)O1)N1CCOCC1,"inconclusive [rising, single point]",–
CCc1nc2c(OCC(N)=O)cccn2c1N(C)C(=O)c1cccs1,"inconclusive [rising, partial curve, poor fit]",–
CCOC(=O)C1=C[C@@H](c2ccccc2)N(S(=O)(=O)c2ccc(C)cc2)[C@H]1c1ccc(F)cc1,–,inactive: 8.43%
COc1nc(-c2ccccc2)ccc1-c1noc(-c2ccccc2F)n1,–,inconclusive: 32.2%
Cc1ccc(S(=O)(=O)N2CCCCC2)cc1NC(=O)CSCC(=O)O,–,inactive: 20.9%
CCOC(=O)Cc1ccc(Nc2nc(NC)nc3ccsc23)cc1,"inconclusive [cytotoxic, partial curve]",–
COc1ccc(OC)c(C2SCCN2S(=O)(=O)c2cccc(C(F)(F)F)c2)c1 (centres undefined),–,inactive: -6.08%
Clc1cccc(Cl)c1/C=N\Nc1nccs1,"inconclusive [cytotoxic, single point]",–
O=C(NC(=S)Nc1ccc(CN2CCOCC2)cc1)c1ccc([N+](=O)[O-])cc1,–,inactive: -3.9%

Compound,Potency,"activity, negative = less viability"
CNC(=O)Nc1cc(C(F)(F)F)cc(C(F)(F)F)c1,–,inactive: 8.41%
CCc1ccc(CN(Cc2cccnc2)C(=O)/C=C/c2ccc(OC)cc2)cc1,"inconclusive [cytotoxic, single point]",–
COc1ccc(/C=C/C(=O)CC(O)(c2ccccc2)C(F)(F)F)cc1 (centres undefined),"inconclusive [cytotoxic, single point]",–
O=S1(=O)CCOC[C@H](Cc2ccccc2)N1Cc1ccccc1,–,inactive: 1.6%
O=C(CCN1CCN(C(=O)c2ccccc2)CC1)c1ccc(Br)cc1,"inconclusive [cytotoxic, single point]",–
COc1ccc(Nc2nc(-c3sc(C)nc3C)cs2)c(OC)c1,"inconclusive [cytotoxic, single point]",–
O=C(Nc1ccccc1)C1=C[C@@H](c2ccc(C(F)(F)F)cc2)C[C@@H](OCc2ccc(CO)cc2)O1,"inconclusive [cytotoxic, single point]",–
CC1CCN(C(=O)COC(=O)c2c[nH]c3ccccc23)CC1,–,inactive: -7.63%
Cc1ccc(S(=O)(=O)NN=CC2(c3ccccc3)CC2)cc1,–,inactive: 11.7%
Cc1ccc(C)c(C(=O)CN2C3=NCCCN3c3ccccc32)c1,"inconclusive [cytotoxic, partial curve, poor fit]",–
COc1ccccc1C(=O)NNC1=C(C(=O)C(F)(F)F)CCC1,active: 3.55 µM,–
O/C(=C\c1ccc2ccccc2n1)c1ccc(O)cc1O,"inconclusive [cytotoxic, single point]",–
O=C(CCl)Nc1ccc(Sc2ccc(NC(=O)CCl)cc2)cc1,"inconclusive [cytotoxic, full curve, poor fit]",–
COc1ccc(/C(C)=N/NC(=O)C2C3CCCCC32)c(OC)c1 (centres undefined),"inconclusive [rising, partial curve, poor fit]",–
NC(=O)c1nsc(C(=O)N(Cc2ccccc2Cl)C(C(=O)NCC2CCCO2)c2ccc(O)cc2)c1N (centres undefined),–,inactive: -17.6%
CCC1Nc2ncnc(N3CCN(c4ccccc4)CC3)c2N(Cc2ccc(C)cc2)C1=O (centres undefined),"inconclusive [cytotoxic, partial curve, poor fit]",–
CCOc1ccc2[nH]c3c(NCCOC)ncnc3c2c1,–,inactive: 0.548%
O=C1OCCN1C(=O)[C@H]1[C@H](c2ccc([N+](=O)[O-])cc2)C(c2cccc(Cl)c2)=NN1c1ccccc1,–,inactive: -25.2%
N#C/C(=C\c1ccccc1[N+](=O)[O-])C(=O)NC1CCCCC1,"inconclusive [cytotoxic, single point]",–
Cc1ccc(-c2cc(N)nc(-c3ccccc3)c2)cc1,"inconclusive [cytotoxic, single point]",–
O=[N+]([O-])c1ccc2c(c1)Cc1cc(F)ccc1-2,"inconclusive [rising, full curve, poor fit]",–
COc1cccc(NCc2cc3c(C(C)(C)C)nn(-c4ccccc4)c3[nH]c2=O)c1,"inconclusive [cytotoxic, single point]",–
CC(C)Oc1ccc(C(=O)/C=C2/C(=O)Nc3ccccc32)cc1,"inconclusive [cytotoxic, partial curve]",–
